Values joined by “and” are separate entries in the source; they are usually repeats but may differ in a detail not shown here. Identical values can stand only once. Among all 420,000 compounds or so, about 50,000 (12%) were called active. Inconclusive means that the source gave no clear call. Such entries were picked first, then a sample of the others. The call rests on the fitted dose curve; in most records, active means well fitted inhibition curve with a large enough effect; inconclusive means small, poorly fitted or top-dose-only effect; inactive means flat fitted curve, though single readings scatter. Potencies of inconclusive entries are doubtful fits and often do not repeat.
Experiment: qHTS for Inhibitors of human tyrosyl-DNA phosphodiesterase 1 (TDP1): qHTS in cells in presence of CPT; further: nearly all actives have a fitted effect of over 55% in size
Details: chicken DT40 Tdp1-/-;hTDP1 cells + 20 nM CPT, ATP luminescence, 48 h; series mostly up to 46.2 µM
Outline: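 Cell growth measured by CellTiter-Glo luminescence after a minimum 48 h, 37 C compound exposure with 20 nM CPT in Tdp1-knockout DT40 cells stably expressing hTDP1, seeded 400/well; qHTS titration format.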
Potency means the concentration at half of the fitted maximal effect; tags describe the fitted curve by direction and shape.

Row | SMILES | Potency
1 | CCc1ccc(S(=O)(=O)Nc2ccc3c(c2)n(C)c(=O)c(=O)n3C)cc1 | inconclusive: 20.6 µM [inhibitor, single point]
2 | O=C(C1CCCN(S(=O)(=O)c2ccccc2)C1)N1CCN(c2ccccc2)CC1 (centres undefined) | inconclusive: 18.4 µM [inhibitor, single point]
3 | Cc1cc(=O)oc2cc(NC(=O)c3cccc(Br)c3)ccc12 | inconclusive: 5.8 µM [inhibitor, partial curve]
4 | CCC(=O)N1CCc2cc(Br)cc(S(=O)(=O)CCC(=O)N3CCN(c4cccc(C)c4)C(C)C3)c21 (centres undefined) | inconclusive: 23.1 µM [inhibitor, single point]
5 | NC(CCc1ccccc1)c1csc(NC(=O)Nc2cccc(C(F)(F)F)c2)n1 (centres undefined) | inconclusive: 18.4 µM [inhibitor, single point]
6 | CCN(C(=O)CSc1ccc(S(=O)(=O)N2CCOCC2)cn1)c1ccccc1 | inconclusive: 18.4 µM [inhibitor, single point]
7 | O=C(CN1CCN(S(=O)(=O)c2cccc(Cl)c2)CC1)NCC1(N2CCOCC2)CCCCC1 | inconclusive: 23.1 µM [inhibitor, single point]
8 | O=C(O)CN1CCN(Cc2ccccc2)C1=O | inactive
9 | COc1ccc(/C=C/C(=O)Nc2cccc(S(=O)(=O)N3CCOCC3)c2)cc1OC | inconclusive: 14.6 µM [inhibitor, partial curve, poor fit]
10 | CC(=O)NCc1ccc(C(=O)CCl)cc1 | active: 4.11 µM
11 | O=C(NCc1ccc(Cl)cc1)NCc1noc2ccccc12 | inconclusive: 20.6 µM [inhibitor, single point]
12 | Cc1cncc(N2CCN(c3ccccn3)CC2)n1 | inactive
13 | O=C(Nc1nc(-c2cccc3ccccc23)cs1)c1ccc2c(c1)S(=O)(=O)c1ccccc1C2=O | active: 18.4 µM
14 | CCOC(=O)c1cc(C(=O)OCC)c(=O)[nH]c1SCc1ccccc1 | inactive
15 | Cc1cc(OCC(=O)Nc2cc(-c3nc4ncccc4o3)ccc2C)ccc1Cl | inconclusive: 20.6 µM [inhibitor, partial curve]
16 | O=C(CCCOc1ccccc1)Nc1cccc(S(=O)(=O)N2CCCCCC2)c1 | inactive
17 | COc1cc2cnc(-c3ccccc3)c(C(=O)c3ccc(F)cc3)c2cc1OC | active: 18.4 µM
18 | Cc1c(C(=O)NNC(=O)c2ccccc2O)oc2ccccc12 | inconclusive: 29.1 µM [inhibitor, single point]
19 | CCc1ccccc1NC1=NCC(=O)N1Cc1ccccc1 | inconclusive: 29.1 µM [inhibitor, single point]
20 | CN(C)c1nc(NC(C)(C)C)nc(NC(C)(C)C)n1 | inconclusive: 29.1 µM [inhibitor, single point]
21 | COC(=O)c1ccccc1NC(=O)C1=CC(c2cccs2)=NS(=O)(=O)N1C | inactive and inconclusive: 20.6 µM [inhibitor, single point]
22 | O=C(/C=C/[C@H]1O[C@@H](n2ccc(=O)[nH]c2=O)[C@H](O)[C@@H]1O)N1CCN(Cc2ccc(F)cc2)CC1 | inactive

Row | SMILES | Potency
23 | COCc1cc(=O)[nH]c(-c2ccccc2)n1 | inactive
24 | COc1cccc(NC(=O)c2cccc(Cl)c2)c1 | inactive
25 | Cc1ccc2ncccc2c1N | inactive
26 | CC(c1ccco1)N(C(=O)c1ccccc1NS(=O)(=O)c1ccc(Cl)c([N+](=O)[O-])c1)c1ccccn1 (centres undefined) | inconclusive: 29.1 µM [inhibitor, single point]
27 | Cc1ccc(S(=O)(=O)c2nnn(-c3ccc(F)c(Cl)c3)c2N)cc1 | inconclusive: 10.3 µM [inhibitor, partial curve]
28 | Cc1ccccc1Nc1nnc(SCC(=O)NC(=O)NCc2ccco2)s1 | inconclusive: 29.1 µM [inhibitor, single point]
29 | COC(=O)C1=C(CSc2nccn2C)NC(=O)NC1c1cc(C)ccc1C (centres undefined) | inconclusive: 3.26 µM [inhibitor, single point]
30 | CC(=O)c1c(C)[nH]c(C(=O)OCC(=O)NCc2ccc(Cl)cc2)c1C | inconclusive: 29.1 µM [inhibitor, single point]
31 | COc1ccc(-c2[nH]c3ccccc3c2SCCN)cc1 | inconclusive: 18.4 µM [inhibitor, single point]
32 | O=C1C=C(c2ccnc3cc(Cl)ccc23)C[C@@H](c2ccc3c(c2)OCO3)C1 | active: 5.8 µM
33 | CCC(=O)Nc1ccc(C(=O)Cn2ncc(Cl)c(Cl)c2=O)cc1 | active: 5.17 µM
34 | O=C(Oc1ccc(OC(=O)N2CCCCC2)cc1)c1ccccc1 | inconclusive: 32.6 µM [inhibitor, partial curve, poor fit]
35 | CCn1c2ccccc2c2cc(NC(C)=O)ccc21 | inactive
36 | O=C(COc1cc2oc(=O)c3c(c2cc1Cl)CCC3)NCc1ccncc1 | inconclusive: 10.3 µM [inhibitor, partial curve]
37 | Cc1nn(CC(=O)Nc2ccc(OC(F)(F)F)cc2)c(=O)c2c(C)n(-c3ccc(Cl)cc3)nc12 | inconclusive: 29.1 µM [inhibitor, single point]
38 | CN1CCN(C(=O)C2CCN(c3ncc(C(F)(F)F)cc3Cl)CC2)CC1 | inconclusive: 1.64 µM [inhibitor, partial curve, poor fit]
39 | Cc1cccc(C)c1Nc1c(-c2ccccn2)nc2c(C)cccn12 | active: 16.4 µM
40 | CN1CCN(c2ncc3nc(-c4ccccc4)c(=O)n(CCc4ccccc4)c3n2)CC1 | inconclusive: 29.1 µM [inhibitor, single point]
41 | COc1ccc2c(c1)c(N=NC(N)=S)c(O)n2CC(=O)c1ccccc1 | inactive
42 | CN(CCNC(=O)c1cc2c(=O)n(C)c3ccccc3c2n1C)Cc1ccccc1 | inconclusive: 23.1 µM [inhibitor, single point]
43 | COc1ccc(CCNC(=O)COC(=O)/C=C/c2ccc3c(c2)OCO3)cc1OC | inconclusive: 25.9 µM [inhibitor, single point]
44 | O=S(=O)(Nc1cccc(-c2cn3cccnc3n2)c1)c1ccc(Cl)cc1 | inconclusive: 0.731 µM [inhibitor, full curve, poor fit]

Source: PubChem BioAssay AID686979 (National Center for Advancing Translational Sciences (NCATS), 2013)
